# Source: the supplement of paper PMC8728848
# Some of the results follow.
# B1: AAA (Anguilla anguilla), Q7SIC1 (protein)
# chain: VIPEGYTQENVAVRGKATQSAQLRGEHAANSEASNAIDGNRDSNFYHGSCTHSSGQANPWWRVDLLQVYTITSVTITNRGDCCGERISGAEINIGQHLASNGVNNPECSVIGSMATGETKTFHCPAPMIGRYVVTYLPTSESLHLCEVEVNVDKPAAA
# Columns and labels:
# Assay in all cases: glycan array binding signal (z-score within array); higher = stronger binding
# Settings in all cases: glycan notation: IUPAC condensed, linker removed
# [1] = target: Neu5Ac(a2-3)Gal(b1-3)GalNAc
# Outline: (§1)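 The binding signal is a Z-score computed within each array and averaged over linkers. Arrays of the same protein sequence at different concentrations or buffers were also averaged together. Data originate from 3228 arrays in the Consortium for Functional Glycomics database, kept only where the protein sequence was available.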
# [2] = target: Neu5Ac(a2-3)Gal(b1-3)GalNAc(b1-3)Gal(a1-4)Gal(b1-4)Glc
# Outline: as §1
# [3] = target: Neu5Ac(a2-3)Gal(b1-3)GalNAc(b1-4)[Neu5Ac(a2-3)]Gal(b1-4)Glc
# Outline: as §1
# [4] = target: Neu5Ac(a2-3)Gal(b1-3)GalNAc(b1-4)[Neu5Ac(a2-8)Neu5Ac(a2-3)]Gal(b1-4)Glc
# Outline: as §1
# [5] = target: Neu5Ac(a2-3)Gal(b1-3)GalNAc6S
# Outline: as §1
# [6] = target: Neu5Ac(a2-3)Gal(b1-3)GlcNAc
# Outline: as §1
# [7] = target: Neu5Ac(a2-3)Gal(b1-3)GlcNAc(b1-2)Man
# Outline: as §1
# [8] = target: Neu5Ac(a2-3)Gal(b1-3)GlcNAc(b1-2)Man(a1-3)[GlcNAc(b1-4)][Neu5Ac(a2-3)Gal(b1-3)GlcNAc(b1-2)Man(a1-6)]Man(b1-4)GlcNAc(b1-4)GlcNAc
# Outline: as §1
# [9] = target: Neu5Ac(a2-3)Gal(b1-3)GlcNAc(b1-2)Man(a1-3)[Neu5Ac(a2-3)Gal(b1-3)GlcNAc(b1-2)Man(a1-6)]Man(b1-4)GlcNAc(b1-4)GlcNAc
# Outline: as §1
# [10] = target: Neu5Ac(a2-3)Gal(b1-3)GlcNAc(b1-3)Gal(b1-3)GlcNAc
# Outline: as §1
# [11] = target: Neu5Ac(a2-3)Gal(b1-3)GlcNAc(b1-3)Gal(b1-4)GlcNAc
# Outline: as §1
# [12] = target: Neu5Ac(a2-3)Gal(b1-3)GlcNAc(b1-3)GalNAc
# Outline: as §1
# [13] = target: Neu5Ac(a2-3)Gal(b1-3)GlcNAc(b1-4)Gal(b1-4)Glc
# Outline: as §1
# [14] = target: Neu5Ac(a2-3)Gal(b1-3)GlcNAc(b1-6)GalNAc
# Outline: as §1
# [15] = target: Neu5Ac(a2-3)Gal(b1-3)GlcNAc6S
# Outline: as §1
# [16] = target: Neu5Ac(a2-3)Gal(b1-3)[Fuc(a1-4)]GlcNAc
# Outline: as §1
# [17] = target: Neu5Ac(a2-3)Gal(b1-3)[Fuc(a1-4)]GlcNAc(b1-3)Gal(b1-3)[Fuc(a1-4)]GlcNAc
# Outline: as §1
# [18] = target: Neu5Ac(a2-3)Gal(b1-3)[Fuc(a1-4)]GlcNAc(b1-3)Gal(b1-4)[Fuc(a1-3)]GlcNAc
# Outline: as §1
# [19] = target: Neu5Ac(a2-3)Gal(b1-3)[GlcNAc(b1-6)]GalNAc
# Outline: as §1
# [20] = target: Neu5Ac(a2-3)Gal(b1-3)[Neu5Ac(a2-3)Gal(b1-4)]GlcNAc
# Outline: as §1
# [21] = target: Neu5Ac(a2-3)Gal(b1-3)[Neu5Ac(a2-6)]GalNAc
# Outline: as §1
# [22] = target: Neu5Ac(a2-3)Gal(b1-3)[Neu5Ac(a2-6)]GlcNAc(b1-3)[Fuc(a1-3)[Gal(b1-4)]GlcNAc(b1-6)]Gal(b1-4)Glc
# Outline: as §1
# [23] = target: Neu5Ac(a2-3)Gal(b1-3)]Neu5Ac(a2-3)Gal(b1-4)]GlcNAc
# Outline: as §1
# Neu5Ac(a2-3)Gal(b1-4)Glc = target: Neu5Ac(a2-3)Gal(b1-4)Glc
# Outline: as §1
# [24] = target: Neu5Ac(a2-3)Gal(b1-4)GlcNAc
# Outline: as §1
# [25] = target: Neu5Ac(a2-3)Gal(b1-4)GlcNAc(b1-2)Man
# Outline: as §1
# [26] = target: Neu5Ac(a2-3)Gal(b1-4)GlcNAc(b1-2)Man(a1-3)[GlcNAc(b1-4)][Neu5Ac(a2-3)Gal(b1-4)GlcNAc(b1-2)Man(a1-6)]Man(b1-4)GlcNAc(b1-4)GlcNAc
# Outline: as §1
# [27] = target: Neu5Ac(a2-3)Gal(b1-4)GlcNAc(b1-2)Man(a1-3)[Neu5Ac(a2-3)Gal(b1-4)GlcNAc(b1-2)Man(a1-6)]Man(b1-4)GlcNAc(b1-4)GlcNAc
# Outline: as §1
# [28] = target: Neu5Ac(a2-3)Gal(b1-4)GlcNAc(b1-2)Man(a1-3)[Neu5Ac(a2-3)Gal(b1-4)GlcNAc(b1-2)Man(a1-6)]Man(b1-4)GlcNAc(b1-4)[Fuc(a1-6)]GlcNAc
# Outline: as §1
# [29] = target: Neu5Ac(a2-3)Gal(b1-4)GlcNAc(b1-2)Man(a1-3)[Neu5Ac(a2-6)Gal(b1-4)GlcNAc(b1-2)Man(a1-6)]Man(b1-4)GlcNAc(b1-4)GlcNAc
# Outline: as §1
# [30] = target: Neu5Ac(a2-3)Gal(b1-4)GlcNAc(b1-2)[Neu5Ac(a2-3)Gal(b1-4)GlcNAc(b1-4)]Man(a1-3)[GlcNAc(b1-4)][Neu5Ac(a2-3)Gal(b1-4)GlcNAc(b1-2)[Neu5Ac(a2-3)Gal(b1-4)GlcNAc(b1-6)]Man(a1-6)]Man(b1-4)GlcNAc(b1-4)GlcNAc
# Outline: as §1
# [31] = target: Neu5Ac(a2-3)Gal(b1-4)GlcNAc(b1-2)[Neu5Ac(a2-3)Gal(b1-4)GlcNAc(b1-4)]Man(a1-3)[GlcNAc(b1-4)][Neu5Ac(a2-3)Gal(b1-4)GlcNAc(b1-4)Man(a1-6)]Man(b1-4)GlcNAc(b1-4)GlcNAc
# Outline: as §1
# [32] = target: Neu5Ac(a2-3)Gal(b1-4)GlcNAc(b1-2)[Neu5Ac(a2-3)Gal(b1-4)GlcNAc(b1-6)]Man(a1-6)[Neu5Ac(a2-3)Gal(b1-4)GlcNAc(b1-2)Man(a1-3)]Man(b1-4)GlcNAc(b1-4)GlcNAc
# Outline: as §1
# [33] = target: Neu5Ac(a2-3)Gal(b1-4)GlcNAc(b1-2)[Neu5Ac(a2-3)Gal(b1-4)GlcNAc(b1-6)]Man(a1-6)[Neu5Ac(a2-3)Gal(b1-4)GlcNAc(b1-2)Man(a1-3)][GlcNAc(b1-4)]Man(b1-4)GlcNAc(b1-4)GlcNAc
# Outline: as §1
# [34] = target: Neu5Ac(a2-3)Gal(b1-4)GlcNAc(b1-3)Gal
# Outline: as §1
# [35] = target: Neu5Ac(a2-3)Gal(b1-4)GlcNAc(b1-3)Gal(b1-3)GlcNAc
# Outline: as §1
# [36] = target: Neu5Ac(a2-3)Gal(b1-4)GlcNAc(b1-3)Gal(b1-4)GlcNAc
# Outline: as §1
# [37] = target: Neu5Ac(a2-3)Gal(b1-4)GlcNAc(b1-3)Gal(b1-4)GlcNAc(b1-2)Man(a1-3)[Neu5Ac(a2-3)Gal(b1-4)GlcNAc(b1-3)Gal(b1-4)GlcNAc(b1-2)Man(a1-6)]Man(b1-4)GlcNAc(b1-4)GlcNAc
# Outline: as §1
# [38] = target: Neu5Ac(a2-3)Gal(b1-4)GlcNAc(b1-3)Gal(b1-4)GlcNAc(b1-3)Gal(b1-4)GlcNAc
# Outline: as §1
# [39] = target: Neu5Ac(a2-3)Gal(b1-4)GlcNAc(b1-3)Gal(b1-4)GlcNAc(b1-3)Gal(b1-4)GlcNAc(b1-2)Man(a1-3)[Neu5Ac(a2-3)Gal(b1-4)GlcNAc(b1-3)Gal(b1-4)GlcNAc(b1-3)Gal(b1-4)GlcNAc(b1-2)Man(a1-6)]GalNAc
# Outline: as §1
# [40] = target: Neu5Ac(a2-3)Gal(b1-4)GlcNAc(b1-3)Gal(b1-4)GlcNAc(b1-3)GalNAc
# Outline: as §1
# [41] = target: Neu5Ac(a2-3)Gal(b1-4)GlcNAc(b1-3)Gal(b1-4)GlcNAc(b1-3)[Neu5Ac(a2-3)Gal(b1-4)GlcNAc(b1-3)Gal(b1-4)GlcNAc(b1-6)]GalNAc
# Outline: as §1
# [42] = target: Neu5Ac(a2-3)Gal(b1-4)GlcNAc(b1-3)Gal(b1-4)GlcNAc(b1-6)[Gal(b1-3)]GalNAc
# Outline: as §1
# [43] = target: Neu5Ac(a2-3)Gal(b1-4)GlcNAc(b1-3)Gal(b1-4)[Fuc(a1-3)]GlcNAc
# Outline: as §1
# [44] = target: Neu5Ac(a2-3)Gal(b1-4)GlcNAc(b1-3)GalNAc
# Outline: as §1
binder,measurement,setting,value
B1,glycan array binding signal (z-score),[1],-0.18
same,glycan array binding signal (z-score),[2],-0.094
same,glycan array binding signal (z-score),[3],-0.161
same,glycan array binding signal (z-score),[4],-0.178
same,glycan array binding signal (z-score),[5],0.003
same,glycan array binding signal (z-score),[6],-0.191
same,glycan array binding signal (z-score),[7],-0.023
same,glycan array binding signal (z-score),[8],-0.242
same,glycan array binding signal (z-score),[9],-0.356
same,glycan array binding signal (z-score),[10],-0.182
same,glycan array binding signal (z-score),[11],-0.234
same,glycan array binding signal (z-score),[12],-0.087
same,glycan array binding signal (z-score),[13],-0.14
same,glycan array binding signal (z-score),[14],-0.242
same,glycan array binding signal (z-score),[15],0.003
same,glycan array binding signal (z-score),[16],-0.285
same,glycan array binding signal (z-score),[17],-0.04
same,glycan array binding signal (z-score),[18],0.053
same,glycan array binding signal (z-score),[19],-0.205
same,glycan array binding signal (z-score),[20],-0.77
same,glycan array binding signal (z-score),[21],-0.191
same,glycan array binding signal (z-score),[22],-0.221
same,glycan array binding signal (z-score),[23],-0.205
same,glycan array binding signal (z-score),Neu5Ac(a2-3)Gal(b1-4)Glc,-0.064
same,glycan array binding signal (z-score),[24],-0.086
same,glycan array binding signal (z-score),[25],-0.02
same,glycan array binding signal (z-score),[26],-0.193
same,glycan array binding signal (z-score),[27],-0.248
same,glycan array binding signal (z-score),[28],-0.279
same,glycan array binding signal (z-score),[29],-0.319
same,glycan array binding signal (z-score),[30],-0.284
same,glycan array binding signal (z-score),[31],-0.26
same,glycan array binding signal (z-score),[32],-0.127
same,glycan array binding signal (z-score),[33],-0.271
same,glycan array binding signal (z-score),[34],-0.341
same,glycan array binding signal (z-score),[35],0.182
same,glycan array binding signal (z-score),[36],-0.285
same,glycan array binding signal (z-score),[37],0.96
same,glycan array binding signal (z-score),[38],-0.061
same,glycan array binding signal (z-score),[39],1.85
same,glycan array binding signal (z-score),[40],-0.289
same,glycan array binding signal (z-score),[41],0.062
same,glycan array binding signal (z-score),[42],0.085
same,glycan array binding signal (z-score),[43],-0.425
same,glycan array binding signal (z-score),[44],-0.238
